Values marked as one replicate rest on one cluster of the flow cell; about a third of the high ones do not repeat.
The sequences below were run on ATP (assay: switch fluorescence ratio, 500 uM ATP over buffer (Cy3 cluster intensity, sum of 5 cycles each) (fold (ratio)); higher = stronger signal-on switching upon ATP binding; sequences stand for … in TCGTCGGCAGCGTCAGATGTGTATAAGAGACAGTTTTTTTTTTTTTTTTTTTTTTTTT…TC). Settings: aptamer strand: ATP DNA aptamer (quencher-CACCTGGGGGAGTATTGCGGAGGAAGG + anchor), 100 nM annealed; ATP concentration: 500 uM; one replicate.
Procedure, shortened: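 The fluorescence ratio divides summed target-cycle Cy3 intensity by summed buffer-cycle Cy3 intensity for each cluster and is averaged per switch-domain sequence. Cy3-labelled switching-strand clusters on a modified Illumina MiSeq flow-cell were annealed to 100 nM quencher-labelled ATP aptamer, then imaged in selection buffer and again after 15 min with 500 uM ATP at 22 °C. Five such cycles were run, with NaOH stripping and re-annealing between them, and clusters outside 100-1000 RFU were excluded.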
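Also: ATP exposure 15 min at 22 °C before imaging.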

Sequence | switch fluorescence ratio
CGCAACCTTG | 1.21
ATTATTTTAG | 0.954
ACTCGTATTG | 1.02
AAGGCGTTGG | 1
GTGCTATTGG | 1.03
TCTTAACCGT | 1.04
GTTGTGATAT | 0.939
GAGTCATTCG | 0.962
ACGCCTAAGC | 1.07
AACGCGCGTT | 0.955
GTTGTCATAT | 0.967
ATGCCCTAG | 0.984
TAGCTGATGC | 1.08
CGACCTATGT | 0.989
GCGGCCATTG | 1
TTAAACCCTT | 1.05
TATGCACTGG | 1.06
CCTGACTAG | 1.01
GGACTCGGGA | 0.968
GGGCGATCGC | 0.955
GCAGTGGATC | 0.991
TGAGTACCTT | 1.09
TAGGATTTCG | 0.974
CCTTACATG | 1.01
CGCCGTTTTA | 1.01
AAAGTCACGT | 1.04

Sequence | switch fluorescence ratio
AATCTGTATG | 1.06
TTAGGGGCCT | 0.984
GTGATCTATT | 0.996
TCGGGCGGTC | 1.04
TTGCAGTCG | 1
GAAGTCATCG | 1.06
TTAGAGTTTT | 0.97
GCCGCTGAGT | 0.99
TTCGTCGAGG | 0.982
TAAATGTGTC | 1.02
ATGAAACTCA | 0.998
TAACCTTTAT | 1.04
ATTTGTATGG | 0.997
ACGGACTAGA | 1.14
GCCCATGG | 1.11
TAAGTGTTAT | 1.03
ATATGGGGGT | 0.997
GATAAGAAAA | 1.06
AGGGGTCAAC | 0.969
TAGGGCGCAC | 1.04
ACATAGAATA | 1.02
AGATATCAGT | 0.999
CTTGTTTTCT | 1.02
AGATGGCAGA | 0.975
TAGGAGCCTG | 1.03
GTGATAGTCT | 1.07

Sequence | switch fluorescence ratio
ATGGAAGGGG | 0.994
ACCTAGAAG | 1.07
AATATTGGGT | 1.06
ACATGGGTAC | 1.06
GCCTAGGAGC | 1.07
GTGAGCGCCA | 0.972
AACGGGTGGC | 1.16
CCTTGCGCTG | 1.73
GAAATTATT | 1.01
TAGCCTATGG | 0.974
CTAACCGGCA | 1.13
TAGACGGCTC | 1.02
ATCGTTTCCG | 0.923
TGGGGTCTAT | 1
AAATTGTGCT | 0.99
TATTTGAGGA | 1.02
CGAATGAGTA | 0.976
TATTTAAATA | 1.03
GGAGCACCTA | 1.14
AGTTAAACTA | 1.02
CTGGGGTTAG | 0.972
CCGTGGACCC | 1.24
GTTGATAAAT | 0.981
AATAGACTTC | 0.973
TGATTAGCTA | 0.97
GAATCATTGG | 1.01

Sequence | switch fluorescence ratio
ATCCTTTTAC | 1.06
GGACAACGTG | 0.947
GGAGGGTCGG | 0.953
TTGGGTCGAA | 0.981
ACATGTGTC | 1.05
CCTATCTCGC | 1.22
GCTGCAGGAA | 1.01
AGGATTAATC | 0.959
TAAGATACAG | 1.02
CGGGAGGCCC | 1.01
CCTATAGTT | 1.07
CTGCTTCGTT | 0.987
TAATGCCGGG | 1.18
TATGGGGTGC | 1.04
GGCATCGGTC | 1.02
CGCATCCG | 1.05
ATTTAATCAG | 1.03
CCGGTACTAA | 1.19
ATTGCACCCT | 1.04
CGTTTCGCGC | 1.02
TAGTCCTGGG | 1.03
ATCTTATTAA | 0.988
TTGGTAACTT | 0.979
CGGCAAGCGC | 1.34
CCCTGTAGAA | 1
ACATAGATGC | 1.07

Sequence | switch fluorescence ratio
GGCTATGACT | 1
AGCTAATAGG | 0.977
AGGCCCGTGG | 1.06
ACGTAGGTGG | 1.05
ATCGCAGCAT | 1.51
GGTACTATGA | 1.01
GTAATAGTCG | 1.03
GCCGACACTA | 1.13
GAACTGTGCA | 1.02
CCGTGAGTA | 1.12
CTATCGAATG | 1
CGGATTTCGC | 1.01
CCTCTAGTTT | 1.1
TTAGAAGATA | 1.01
TAAGATGGGC | 1.01
ATATCAGAGG | 0.959
CAACGTCCTT | 1.01
AGGCCGGT | 0.963
AGAGGGGGA | 0.987
TTGAATGTCG | 0.92
GATTCTACT | 1.02
GTCGCTGATA | 0.979
AAAATATG | 1.01
GGGTTACAAC | 0.973
TCGCCTTCAG | 1.04
CAACCATAG | 1.08

Sequence | switch fluorescence ratio
GTATCCTCCG | 2.85
TGGGCCACGG | 1.1
TGGCGAGAGA | 1.04
TCGGTTGGCT | 0.964
CATCCCCAAG | 1.58
AATTACTCTC | 0.964
CAAACATTGG | 1
AAGCCCATTT | 1.01
TAGGGCCCAC | 1.05
TTCTCGCCGA | 1
ACTCCCGGCA | 1.78
ACATAGCCGC | 1.01
AAACGGTAGG | 1.02
CCTCAGGGTG | 4.14
GGCAATAGTT | 1.37
AAATAAAGAG | 1
CTGAGGCCTA | 1.07
AATAACGTGT | 1.02
GTTTAGTGTG | 0.986
AATATACCTT | 1.81
CGTTCTTAGA | 1.01
TCCCAGATGC | 1.18
GATCTTGCAG | 0.964
TAATTGCCAC | 0.989
AAAGTTTATC | 0.977
TATGTGGCTT | 1.06

Sequence | switch fluorescence ratio
CTGCTATGCG | 1.01
CCCCCGGAAG | 1.96
CCCGGTTAGT | 0.983
GTGACTATCA | 0.994
ATCGTCTTT | 0.96
TTCGAGATTC | 0.969
ACGCTTCCGA | 1.46
TACAGGCCGC | 1.05
AGGCAGTTCC | 1.03
GCTTAACGGG | 0.983
GTTGGTCACG | 0.989
TTTCTGAAAT | 1.08
TAGTAGAACA | 1.06
TGTAGTAAAA | 0.996
GGAATTGAAA | 0.947
TTCCCCAATT | 1.02
GAGTGTCCAG | 0.972
TGAAACTGGG | 0.963
TTCTGTTAGG | 0.96
TTCGAGGCCT | 0.994
ACCGTTCGAC | 1.28
CTTGGTAAAA | 1.04
ATTGATAATT | 0.981
CTTTCTCTCC | 1.13
CTTGTTCAG | 1.01
GCTCAGAAAA | 1.06

Sequence | switch fluorescence ratio
TTCGGTA | 0.991
GGAGGGTGGG | 0.998
TTCAGTTTAT | 1.07
AACCATCCTT | 1.12
GGCTTTTCTT | 1.04
CTGGCTAATT | 1.01
TTCAGTGAAA | 0.991
GGATAAATAC | 1.34
ATCTGGATGC | 1.05
TTATGATCTT | 0.97
AGGACAGGTA | 1.02
GGATATTAGC | 0.984
ATTACAGTGC | 1.23
CAGGATTGAC | 1
GCTTTGTGCC | 0.958
TTGATTTGCG | 0.997
TACAACGAAA | 1
CGGTTCATAG | 1.03
AATTAGAA | 0.971
